This is an account of results in PMC12136788.

T1: UNK ZnF1-3 (human, UniProt Q9C0B0 31-174)
T1 sequence: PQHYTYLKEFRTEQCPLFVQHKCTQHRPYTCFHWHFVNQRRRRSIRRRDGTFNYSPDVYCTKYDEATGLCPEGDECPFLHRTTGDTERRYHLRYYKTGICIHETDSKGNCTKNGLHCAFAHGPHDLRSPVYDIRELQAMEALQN

B1: chr9:15453159:15453160:+_ENSG00000164975_ENST00000490969|hu_mus|FALSE|FALSE (ssRNA)
RNA: GGGAGUUCUACAGUCCGACGAUCAUGGUGCACAAGCCUUAUGUCUGUGAUGACAACAACAUGCUCACAGUCUCCCUGGUGACAGUAUAAGUAAGGAAAGCCAAGUUUAAUAUGCAAGUCAUUAAAUGUGAAAUCUUCCAUUCUCAACAGAGGAUUGAGCAUCA
B2: chr1:244855233:244855234:+_ENSG00000121644_ENST00000302550|hu_mus|hu_hu_hu_mus_True|28_108 (ssRNA)
RNA: GGGAGUUCUACAGUCCGACGAUCCAUUAAAUGAUAAGCGUUGCCCUUAUACUCUUUCCCCAGUUCUUCUACAAUUUUCUCUAUAUCAUCUUCUAGAAAGUCCGUACUCCCUAAAACAACAGCUUCUUUAAAUUUAAAUGUUUCCAACAGAGGAUUGAGCAUCA
B3: chr11:4127340:4127341:+_ENSG00000167325_ENST00000300738|hu_mus|hu_hu_hu_mus_False|58_98 (ssRNA)
RNA: GGGAGUUCUACAGUCCGACGAUCGGCAUAGUCAGGGUGCUUAGUAGUCAAGGUCGCGGCUGUCUCAGCAGCCAGGGUAUCUAGUUCCACUGUGGUGACCCCACUAUAUAGGCCUUGGAUUACUUUCAUGGUGAUCUGAGCAGGCAACAGAGGAUUGAGCAUCA
B4: chr19:15271381:15271382:-_ENSG00000074181_ENST00000263388|hu_mus|FALSE|FALSE (ssRNA)
RNA: GGGAGUUCUACAGUCCGACGAUCUACAAGACAGAGAGGUGCAGGAAGGCUGGGACAGAGAGAAAGGGAUGAGAGUAAGAUUAAAAAGGAGGAAGAAAGAAGUCAUAGAGGAGUGUCACUUCAGCACCCCUCAAAUCCAAGAACCAACAGAGGAUUGAGCAUCA
B5: 114968166_114968286_1623_CDS_ENSG00000197323_ENST00000358465|human|control|control (ssRNA)
RNA: GGGAGUUCUACAGUCCGACGAUCCUGUUGCAACUGCUGAUGUUUCUGUGCAUAUACUUGUUGUUGCAUGUGCUGGAGUCGAAGCUGUGCUAAGUUAAUCUGUCCAGGGGUUUUACUAAUGUGGUUUGUCCCUGGAGGAACUUGCAACAGAGGAUUGAGCAUCA
B6: chr17:45760540:45760541:+_ENSG00000108424_ENST00000290158|hu_hu|FALSE|FALSE (ssRNA)
RNA: GGGAGUUCUACAGUCCGACGAUCUUUCCCUAGAGUAAAAAAAACAAAAAACAAAACCAAAAAAAAAAAACAAAACAAAACCUAAAGAGCGUCUUUCCUCUGUGUGUGUGUUUUUUUUUUUUUUUUUUUUUUUUUUUUUACAUCCAACAGAGGAUUGAGCAUCA

The other results are listed elsewhere or left out.

The target of this assay is T1, UNK ZnF1-3. The assay is described as follows: nsRBNS (natural sequence RNA bind-n-seq); RBNS binding buffer (assumed for nsRBNS): 25 mM Tris pH 7.5, 150 mM KCl, 3 mM MgCl2, 0.01% Triton X-100, 500 ug/ml BSA, 20 U/ml SUPERase-In, 4 C; UNK is unkempt and MSI1 is Musashi-1; names of the RNAs are library labels; protein concentration not given here; high values mean tight binding.
The molecule B1 had a binding signal of 1.08 enrichment R.

In turn, B2 yielded a binding signal of 1.43 enrichment R.

In the case of B3, the binding signal stood at 0.766 enrichment R.

Molecule B4 returned a binding signal of 2.78 enrichment R.

The molecule B5 displayed a binding signal of 0.631 enrichment R.

In turn, B6 yielded a binding signal of 2.03 enrichment R.
